Several values for one entry are separate records, joined by “and”; a condition that tells them apart may be missing. Equal entries are not always repeated. Among all 48,000 compounds or so, about 1,200 (2.5%) were called active. Not shown: some 2% with an inconclusive outcome.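 Rule for the calls: active = activation of at least 60% and not above a set upper limit (about 1 call in 100 departs from these limits); inconclusive = activation of 40% to 60%, or above that upper limit; inactive = activation under 40%.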 This is one part of the list.
The compounds below were run against Probable G-protein coupled receptor 32 (Homo sapiens) (UniProt O75388) (assay: qHTS for Agonists of Human Resolvin D1 Receptor DRV1). Conditions: CHO-K1 GPR32 beta-arrestin PathHunter luminescence, 90 min; at 76.9 µM; hits give high values; zero percent set by DMSO-only wells.
Sequence of UniProt O75388 (O75388 whole entry, looked up): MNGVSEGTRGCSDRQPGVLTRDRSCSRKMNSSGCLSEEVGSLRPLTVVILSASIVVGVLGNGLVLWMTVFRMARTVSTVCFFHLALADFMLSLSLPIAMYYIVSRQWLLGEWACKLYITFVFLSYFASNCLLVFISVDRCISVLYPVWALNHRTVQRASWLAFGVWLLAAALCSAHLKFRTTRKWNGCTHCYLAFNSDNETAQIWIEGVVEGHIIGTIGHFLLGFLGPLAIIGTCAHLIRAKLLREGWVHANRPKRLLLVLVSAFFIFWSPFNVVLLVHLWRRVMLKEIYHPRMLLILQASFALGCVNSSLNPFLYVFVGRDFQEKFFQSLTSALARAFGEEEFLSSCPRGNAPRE
In short: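 Engineered CHO-K1 line co-expressing GPR32-ProLink and EA-beta-arrestin. Compound treatment lasted 90 min at 37 °C. Luminescence was recorded after 1 h with substrate at ambient temperature, relative to DMSO basal wells.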
Note: 0% is about no effect.

SMILES | activation
Cc1cc(C)n(-c2nc3ccccc3nc2Nc2cccc(C(=O)NCCc3ccccc3)c2)n1 | inactive: -7.4%
COc1ccc(CCNC(=O)c2c(C)oc3nc(C)nc(N4CCOCC4)c23)cc1OC | inactive: -5.03%
CCN1CCOC(=O)C1CC(=O)Nc1cccc(OC)c1 (stereo not drawn) | inactive: -7.26%
Cc1onc(-c2ccccc2Cl)c1C(=O)Oc1ccc(Br)cc1 | inactive: -1.24%
Cn1cc(S(=O)(=O)N2CCCCCC2)cc1C(=O)NCc1ccc(Cl)cc1 | inactive: 34.2%
CC1=C(C(=O)Nc2ccccc2)C(c2cccc(O)c2)n2nc(-c3ccccc3Cl)nc2N1 (stereo not drawn) | inactive: 8.55%
COc1cccc(NC(=O)CN(Cc2ccccc2)S(=O)(=O)c2ccc3nc(C)sc3c2)c1 | inactive: -15.2%
CSc1ncc(Cl)c(C(=O)Nc2nc3ccc(F)cc3s2)n1 | inactive: 31.9%
COc1ccc(OC)c(-c2nc(C(N)=O)c3c(n2)n(-c2ccc4c(c2)OCO4)c(=O)n3C)c1 | inactive: -5.64%
Cc1nn(CCCC(=O)NCc2cccc(F)c2)c(=O)c2nn(-c3ccccc3)c(C)c12 | inactive: -20.5%
CCN1CCN(C(=O)c2ccc3c(c2)N(Cc2ccccc2)C(=O)c2ccccc2S3=O)CC1 (stereo not drawn) | inactive: -7.29%
CCOc1ccc(CNCc2c(C(=O)O)c(C)n(Cc3ccc(F)cc3Cl)c2C)cc1 | inactive: 33.8%
CCCCc1nn2c(=O)cc(COC(=O)c3cccc(NC(=O)c4cccc(C)c4)c3)nc2s1 | inactive: -17.1%
CCOC(=O)c1c(S(=O)(=O)NCC(=O)Nc2ccc(Cl)c(C(F)(F)F)c2)c(C)n(C)c1C | inactive: 3.09%
Cc1ccc(CN2CCCn3nc(C(=O)NCc4ccccc4Cl)cc3C2=O)cc1 | inactive: 22.5%
Cc1ccc(NC(=O)CN(C)S(=O)(=O)c2ccc3c(c2)CCC(=O)N3)c(C)c1 | inactive: 12.4%
COc1ccccc1C(=O)c1c(N)c(-c2nc(-c3ccccc3)cs2)c2ccccn12 | inactive: -32.4%
CCCCN(CC)C(=O)CCn1c(=O)c2cccn2c2cccnc21 | inactive: -13.1%
COc1ccccc1-c1noc(-c2ccc(N(C)Cc3ccccc3)c([N+](=O)[O-])c2)n1 | inactive: 1.5%
Cc1ccc(NC(=O)Cn2nc(-c3ccc(F)cc3)c3cnc4ccc(C)cc4c32)cc1 | inactive: 9.56%
CCCN1CCN(c2ncc3c(n2)CCN(Cc2ccc(OC)c(OC)c2OC)C3)CC1 | inactive: -9.58%
CC(=O)c1cccc(N(C(=O)Cn2nnc3ccccc32)C(C(=O)NCc2ccccc2)c2ccc(F)cc2)c1 (stereo not drawn) | inactive: -19.5%
CCCCNC(=O)CN1C(=O)CSc2ccc(S(=O)(=O)N3CCC(C)CC3)cc21 | inactive: 9.2%
COc1cc(NS(=O)(=O)c2ccc(N)cc2)nc(C)n1 | inactive: 9.18%
Cc1ccc(Cl)cc1N1CCN(C(=O)c2cccn2-c2nnc(N3CCCCC3)s2)CC1 | inactive: -7.93%
Fc1cccc(Cl)c1CNc1n[nH]c(-c2ccco2)n1 | inactive: 8.13%
CC(C)CCNC(=O)c1ccc(Cn2c(SCC(=O)NC(C)C)nc3ccccc3c2=O)cc1 | inactive: -27.5%

SMILES | activation
COc1cc(Cl)ccc1OC(=O)c1cn(-c2ccccc2OC)c(=O)c2ccccc12 | inactive: 12.5%
CC1C(=O)Nc2ccc(S(=O)(=O)Nc3ccccc3Br)cc2NC1=O (stereo not drawn) | inactive: 0.581%
Cc1ccc2nc(Cl)c3cc(C(=O)NCCCN4CCC(C)CC4)sc3c2c1 | inactive: -0.0005%
Cc1c(-c2ccccc2)c(=O)oc2c(CN3CCN(C)CC3)c(O)ccc12 | inactive: 12.7%
Cc1cc(NC(=O)c2ccc(-c3ccc(Br)cc3)o2)cc(-c2nc3ncccc3o2)c1O | inactive: 26.7%
COc1ccc(N2CC(NC(=O)c3ccc4c(c3)OCO4)CC2=O)cc1OC (stereo not drawn) | inactive: 19.9%
CCc1ccc(-n2c(SCC(=O)NC(C)CC)nc3n[nH]c(C)c3c2=N)cc1 (stereo not drawn) | inactive: -16.2%
COc1ccc2c(c1)c1c(c(=O)n(-c3ccccc3)c(=O)n1CC(=O)Nc1ccc(F)cc1)n2C | inactive: 15.5%
Cc1ccc(C)c(S(=O)(=O)c2nnn3c2nc(NCc2cccs2)c2sccc23)c1 | inactive: -18%
N#C/C(=C\c1ccc(O)c(O)c1)C(=O)c1ccc(O)c(O)c1 | inactive: -26.6%
COc1ccc(NC(=O)Cc2csc(COc3cccc(C)c3)n2)cc1OC | inactive: 42.9%
CCc1cc2c(cc3c(=O)n(CC(=O)N4CCCCC4)nc(CC)n32)s1 | inactive: 1.61%
COc1ccc(CNC(=O)Cn2nnc(-c3ccccc3F)n2)cc1 | inactive: -0.303%
Cc1ccc(-c2nc(S(=O)(=O)c3ccc(Cl)cc3)c(N3CCCCC3)o2)cc1 | inactive: -5.36%
CCCCN(C)CC(O)Cn1cc(/C=C/C(=O)c2ccc(OC)c(OC)c2)c2ccccc21 (stereo not drawn) | inactive: 38.2%
CCCn1ccc2c(OCC(=O)NCc3ccc(F)cc3)cccc2c1=O | active: 76.6%
COc1ccc(Cl)cc1C(=O)Nc1ccc2oc(-c3ccc(C(C)(C)C)cc3)nc2c1 | inactive: 24.1%
CC(C)(C)C(=O)NCCCC(=O)O | inactive: 9.72%
CCCSC1=NC2(CCN(C(=O)NC3CCCCC3)CC2)N=C1c1ccccc1 | inactive: -9.57%
CCCSc1ncc(Cl)c(C(=O)Nc2sc3c(c2C(=O)NCC)CCCC3)n1 | inactive: -11.8%
NC12CC3CC(CC(C3)C1)C2 | inactive: -4.06% and inactive: -0.386%
CN1CCN(C2=Nc3cc(Cl)ccc3Nc3ccccc32)CC1 | inactive: 15.1% and inactive: -9.67%
Cc1ccc(C)c(NS(=O)(=O)c2ccc3c(c2)n(C)c(=O)n3C)c1 | inactive: 7.13%
COc1ccc(-c2noc(Cn3c(=O)c4ccccc4n(CC(=O)Nc4cccc(C(F)(F)F)c4)c3=O)n2)cc1 | inactive: -8.81%
CC(C)NC(=O)N1CCC(N2CCN(Cc3ccc(F)cc3)C(=O)C2=O)CC1 | inactive: -9.75%
CCOc1ccc(N(CC)S(=O)(=O)N2CCCC(C(=O)NCc3ccc(Cl)cc3)C2)cc1 (stereo not drawn) | inactive: -28.3%

From PubChem BioAssay AID1346428 (National Center for Advancing Translational Sciences (NCATS), 2018)
